Source: US9604926B2 (THE UNIVERSITY OF MISSISSIPPI, priority 2007, dated 2017)

How the values were obtained:
σ-1 receptor = σ-1 receptor (Rattus norvegicus (Rat), UniProt Q9R0C9); assay: σ-1 receptor binding in rat brain homogenates ([3H](+)-pentazocine)
σ-2 receptor = σ-2 receptor (Rattus norvegicus (Rat), UniProt Q5U3Y7); assay: σ-2 receptor binding in rat brain homogenates ([3H]DTG plus (+)-pentazocine)
[1] = read-out: Ki (nm) σ1, compound listing tables
[2] = read-out: Ki (nm) σ2, compound listing tables
[3] = read-out: Ki (nM) σ1, compound listing tables
[4] = read-out: σ-1 (Ki), rat brain homogenates
[5] = read-out: Ki (nM) σ2, compound listing tables

UniProt Q9R0C9, sequence (Q9R0C9 whole entry): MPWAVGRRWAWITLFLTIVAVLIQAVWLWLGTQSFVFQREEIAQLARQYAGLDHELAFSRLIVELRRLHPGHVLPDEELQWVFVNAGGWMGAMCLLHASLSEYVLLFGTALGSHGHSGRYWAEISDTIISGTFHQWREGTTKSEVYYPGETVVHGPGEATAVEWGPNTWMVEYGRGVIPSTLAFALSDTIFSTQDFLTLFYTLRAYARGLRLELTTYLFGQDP
UniProt Q5U3Y7, sequence (Q5U3Y7 whole entry): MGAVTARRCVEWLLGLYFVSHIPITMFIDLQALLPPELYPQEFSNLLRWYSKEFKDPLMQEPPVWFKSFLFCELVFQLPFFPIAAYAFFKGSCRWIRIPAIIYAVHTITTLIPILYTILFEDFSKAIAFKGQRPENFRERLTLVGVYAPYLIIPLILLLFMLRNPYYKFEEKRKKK

Compound | Ki (σ-1 receptor; [3]) [nM] | Ki (σ-2 receptor; [5]) [nM] | other results
CC(CCCn1c(=S)sc2ccccc21)N1CCN(C2CCCCC2)CC1 (stereo not shown) [AZ-59] | – | – | Ki (σ-1 receptor; [1]): 8.94 ± 1.64 nM; Ki (σ-2 receptor; [2]): 0.99 ± 0.178 nM
CC(CCCN1C(=O)CSc2ccccc21)N1CCN(C2CCCCC2)CC1 (stereo not shown) [AZ-60] | – | – | Ki (σ-2 receptor; [2]): 5.49 ± 1.1 nM
O=c1sc2cc(F)ccc2n1CCCCN1CCN(C2CCCCC2)CC1 [AZ-68] | – | – | Ki (σ-2 receptor; [2]): 0.22 ± 0.09 nM
O=c1oc2ccccc2n1CCCCN1CCN(C2CCCCC2)CC1 [CM 121] | 11.3 ± 1.25 | – | Ki (σ-1 receptor; [4]): 11.3 ± 1.25 nM
O=C1CCN(CCCCn2c(=O)oc3ccccc32)CC1 [CM 152] | – | 78.5 ± 39.6 | –
S=c1sc2ccccc2n1CCCCN1CCN(C2CCCCC2)CC1 [CM 156] | – | 0.55 ± 0.08 | –
O=c1oc2ccccc2n1CCCCN1CCN(CC2CC2)CC1 [CM 162] | 10.8 ± 1 | 46.8 ± 10.2 | –
O=c1oc2ccccc2n1CCCCN1CCN(CCc2ccccc2)CC1 [CM 166] | 3.15 ± 0.37 | 92.7 ± 14.1 | –
O=c1oc2ccccc2n1CCCCN1CCN(c2ccc([N+](=O)[O-])cc2)CC1 [CM 167] | 259 ± 33.5 | 226 ± 17.5 | –
O=c1oc2ccccc2n1CCCCN1CCN(c2ccccn2)CC1 [CM 168] | 312 ± 33.2 | 128 ± 16.3 | –
O=c1oc2ccccc2n1CCCCN1CCN(c2ccc(Cl)cc2)CC1 [CM 169] | 25.4 ± 4.72 | 242 ± 29 | –
CCc1ccc2oc(=O)n(CCCCN3CCN(C4CCCCC4)CC3)c2c1 [CM 174] | 4.04 ± 0.35 | – | –
O=c1oc2ccccc2n1CCN1CC=C(c2ccc(Cl)cc2)CC1 [CM 175] | 21.4 ± 3.68 | 616 ± 77.5 | –
O=c1oc2ccccc2n1CCN1CCN(CCc2ccccc2)CC1 [CM 176] | 1.43 ± 0.26 | – | –
O=c1oc2ccccc2n1CCN1CCN(c2ccccn2)CC1 [CM 178] | – | – | Ki (σ-1 receptor): > 10000 nM; Ki (σ-2 receptor): > 10000 nM
O=c1oc2ccccc2n1CCN1CCN(c2ccc(Cl)cc2)CC1 [CM 179] | – | 2260 ± 96.1 | –
O=c1oc2ccccc2n1CCN1CCN(CC2CCCCC2)CC1 [CM 181] | – | 8.83 ± 1.17 | –
O=c1oc2ccccc2n1CCN1CCC(c2ccccc2)CC1 [CM 182] | 14.1 ± 2.84 | 777 ± 72.5 | –
CC(=O)c1ccc2oc(=O)n(CCCCN3CCN(C4CCCCC4)CC3)c2c1 [CM 184] | 40.8 ± 6.21 | 10.4 ± 1.54 | –
O=c1oc2cc([N+](=O)[O-])ccc2n1CCCCN1CCN(C2CCCCC2)CC1 [CM 188] | – | 2.46 ± 0.18 | –
CC(=O)Nc1ccc2c(c1)oc(=O)n2CCCCN1CCN(C2CCCCC2)CC1 [CM 191] | 214 ± 55.3 | 77.4 ± 14.2 | –
COc1cc2c(cc1OC)CN(CCCCn1c(=O)oc3ccccc31)CC2 [CM 295] | – | 1.52 ± 0.64 | –

Compound | Ki (σ-1 receptor; [3]) [nM] | Ki (σ-2 receptor; [5]) [nM] | other results
COc1cc2c(cc1OC)CN(CCCCn1c(=S)sc3ccccc31)CC2 [CM 308] | – | 0.56 ± 0.12 | –
O=c1n(CCCCN2CCN(c3ccc(F)cc3)CC2)c2ccccc2n1-c1ccc(F)cc1 [CM 322] | – | 1.67 ± 0.16 | –
Fc1ccc(N2CCN(CCCCn3ccc4ccccc43)CC2)cc1 [CM 338] | – | 1.09 ± 0.03 | –
O=c1oc2cc(-c3ccc(F)cc3)ccc2n1CCCCN1CCN(C2CCCCC2)CC1 [CM 343] | 17.6 ± 0.82 | 38.1 ± 1.42 | –
CC(=O)c1ccc2[nH]c(=O)n(CCCCN3CCN(c4ccc(F)cc4)CC3)c2c1 [CM 356] | 27.8 ± 4.14 | 1.21 ± 0.2 | –
COc1cc2c(cc1OC)CN(CCCCn1ccc3ccccc31)CC2 [CM 360] | 73.2 ± 5.58 | – | –
O=c1oc2ccccc2n1CCCCN1CCN(c2ccccc2F)CC1 [CM 362] | – | 2.79 ± 0.49 | –
O=c1oc2ccc(Br)cc2n1CCCCN1CCN(C2CCCCC2)CC1 [CM 365] | 5.94 ± 0.35 | 0.055 ± 0.0063 | –
O=c1[nH]c2ccc(-c3ccc(F)cc3)cc2n1CCCCN1CCN(C2CCCCC2)CC1 [CM 366] | 22.6 ± 1.14 | 0.0061 ± 0.00096 | –
S=c1oc2ccccc2n1CCCCN1CCN(C2CCCCC2)CC1 [CM 372] | – | 0.77 ± 0.06 | –
Cn1c(=O)n(CCCCN2CCN(c3ccc(F)cc3)CC2)c2ccccc21 [CM 397] | – | 0.46 ± 0.03 | –
CC(=O)c1ccc2c(c1)oc(=O)n2CCCCN1CC=C(c2ccc(F)cc2)CC1 [CM 401] | 2.89 ± 0.23 | 0.66 ± 0.08 | –
CC(=O)c1ccc2c(c1)oc(=O)n2CCCCN1CCN(c2ccc(F)cc2[N+](=O)[O-])CC1 [CM 592] | – | 6.3 ± 0.39 | –
Cn1c(=O)n(CCCCN2CCN(c3ccc(F)cc3N)CC2)c2ccccc21 [CM 599] | – | 3.59 ± 0.12 | –
CC(=O)c1ccc2c(c1)oc(=O)n2CCCC(C)N1CCN(c2ccc(F)cc2)CC1 (stereo not shown) [CM 600] | 27.1 ± 2.32 | 2.15 ± 0.09 | –
Cn1c(=O)n(CCCCN2CCN(c3ccc(F)cc3)CC2)c2cc([N+](=O)[O-])ccc21 [CM 608] | – | 4.72 ± 0.42 | –
Cn1c(=O)n(CCCCN2CCN(c3ccc(F)cc3)CC2)c2cc(N)ccc21 [CM 609] | – | 26.6 ± 2.74 | –
Cn1c(=O)n(CCCCN2CCN(c3ccc(F)cc3)CC2)c2cc(N=C=S)ccc21 [CM 617] | – | 30.1 ± 3.42 | –
CC(=O)c1ccc(NCCCCN2CCN(c3ccc(F)cc3)CC2)c(O)c1 [CM 623] | – | 44.1 ± 3.4 | –
O=c1oc2ccccc2n1CCCCN1CCN(c2ccc(F)cc2F)CC1 [CM 624] | – | 1.96 ± 0.11 | –
CC(=O)c1ccc2c(c1)oc(=S)n2CCCCN1CCN(c2ccc(F)cc2)CC1 [CM 625] | – | 1.88 ± 0.13 | –
CC(=O)c1ccc2c(c1)OCC(=O)N2CCCCN1CCN(c2ccc(F)cc2)CC1 [CM 627] | – | 6.34 ± 0.17 | –

Compound | Ki (σ-1 receptor; [3]) [nM] | Ki (σ-2 receptor; [5]) [nM] | other results
CC(=O)c1ccc2c(c1)oc(=O)n2CCCCN1CCCN(c2ccc(F)cc2)CC1 [CM 673] | 104 ± 8.06 | 50.6 ± 4.32 | –
O=c1[nH]c2ccccc2n1CCCCN1CCN(c2ccc(F)cc2)CC1 [CM 728] | 186 ± 11.8 | 29.6 ± 1.51 | –
CCC(=O)c1ccc2c(c1)sc(=O)n2CCN1CCN(C2CCCCC2)CC1 [SC-5] | – | – | Ki (σ-2 receptor; [2]): 3.73 ± 0.43 nM
CCC(=O)c1ccc2c(c1)oc(=O)n2CCN1CCN(C2CCCCC2)CC1 [SC-10] | – | – | Ki (σ-2 receptor; [2]): 4.85 ± 0.31 nM
CCCc1ccc2c(c1)oc(=O)n2CCN1CCN(C2CCCCC2)CC1 [SC-12] | – | – | Ki (σ-2 receptor; [2]): 4.02 ± 0.23 nM
O=c1oc2ccccc2n1CCCCCCN1CCN(C2CCCCC2)CC1 [SN-48] | 4.6 | – | Ki (σ-1 receptor; [4]): 4.6 ± 1.08 nM
CCCCCCCc1ccc2c(c1)sc(=O)n2CCCCN1CCN(C2CCCCC2)CC1 [SN-55] | 34.1 | 31.4 | –
CCCCCCC(=O)c1ccc2c(c1)sc(=O)n2CCCCN1CCN(C2CCCCC2)CC1 [SN-57] | 43.8 | 29.3 | –
O=c1oc2ccccc2n1CCCCN1CCCCC1 [SN-60] | – | 213 | –
CCC(=O)c1ccc2oc(=O)n(CCN3CCCCCC3)c2c1 [SN-71] | – | 2340 | –
O=C(c1ccccc1)c1ccc2c(c1)oc(=O)n2CCN1CCCCCC1 [SN-78] | 88.3 | 860 | –
Cl.Cl.O=c1sc2ccccc2n1CCCN1CCN(C2CCCCC2)CC1 [SN-99] | – | 2.44 | –
Cl.Cl.O=c1sc2ccccc2n1CCCCCCN1CCN(C2CCCCC2)CC1 [SN-102] | 6.55 | – | –
Nc1ccc2c(c1)oc(=O)n2CCCCN1CCN(c2ccc(F)cc2)CC1 [SN-228] | – | – | Ki (σ-1 receptor; [1]): > 10000 nM
CC(=O)Nc1ccc2c(c1)oc(=O)n2CCCCN1CCN(c2ccc(F)cc2)CC1 [SN-248] | – | – | Ki (σ-1 receptor; [1]): 88.4 ± 12.7 nM; Ki (σ-2 receptor; [2]): 48.1 ± 5.68 nM
CC(O)c1ccc2c(c1)oc(=O)n2CCCCN1CCN(c2ccc(F)cc2)CC1 (stereo not shown) [SN-249] | – | – | Ki (σ-2 receptor; [2]): 8.68 ± 0.57 nM
O=c1oc2ccccc2n1CCCCN1CCN(c2ccc(C(F)(F)F)cc2)CC1 [SN-250] | – | – | Ki (σ-1 receptor; [1]): 87.6 ± 8.77 nM; Ki (σ-2 receptor; [2]): 98.8 ± 1.08 nM
O=c1oc2ccccc2n1CCCCN1CCN(c2ccccc2)CC1 [SN-251] | – | – | Ki (σ-1 receptor; [1]): 18.4 ± 1.46 nM; Ki (σ-2 receptor; [2]): 11.4 ± 1.15 nM
Cc1ccc(N2CCN(CCCCn3c(=O)oc4ccccc43)CC2)cc1 [SN-252] | – | – | Ki (σ-1 receptor; [1]): 213 ± 22.2 nM
CC(F)c1ccc2c(c1)oc(=O)n2CCCCN1CCN(c2ccc(F)cc2)CC1 (stereo not shown) [SN-253] | – | – | Ki (σ-2 receptor; [2]): 6.12 ± 0.37 nM

Like-named read-outs stand apart in the source and are kept apart here.
